# Results taken from PubChem BioAssay AID504832 (National Center for Advancing Translational Sciences (NCATS), 2011).
# “And” between values parts separate entries of the source, which are not always exact repeats. Identical values can stand only once. Screen size: about 310,000 compounds; about 18,000 (5.8%) were called active. The shares of active, inactive and inconclusive entries below differ from those in the screen. The call rests on the fitted dose curve; in most records, active means well fitted inhibition curve with a large enough effect; inconclusive means small, poorly fitted or top-dose-only effect, or another doubt; inactive means no such curve, though single readings can be large or run the other way. Potencies of inconclusive entries are doubtful fits and often do not repeat.
# Test: Primary qHTS for delayed death inhibitors of the malarial parasite plastid, 48 hour incubation
# Settings: P. falciparum luciferase growth in erythrocytes; series mostly up to 28.7 µM; activity change, negative = inhibition: at the top concentration
# Procedure, shortened: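 Compounds are pin-transferred into medium, infected erythrocytes (2% hematocrit, 0.1% parasitemia final) are added, and plates sit one parasite generation at 37 C in 5% CO2. Detection reagent is then added and luminescence measured.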
# On the % scale 0 is the no-effect control and ±100 the full control effect; potency means the concentration at half of the fitted maximal effect; tags describe the fitted curve by direction and shape.
SMILES,Potency,"activity change, negative = inhibition"
CCOC(=O)c1ccc(S(=O)(=O)n2c(=O)oc3ccccc32)cc1,"inconclusive: 18.5 µM [inhibitor, single point]",
O=C(NC(CO)(CO)CO)c1coc(=O)c(Br)c1,"inconclusive: 0.294 µM [inhibitor, full curve, poor fit]",
O=c1ccc(Oc2nc(N3CCCCC3)nc(N3CCCCC3)n2)n[nH]1,,inactive: 14.4%
Cc1cc(NC(=O)CSc2nc3ccccc3c(=O)n2Cc2ccc(F)cc2)no1,"inconclusive: 9.28 µM [inhibitor, partial curve]",
COCC1CCN(Cc2cn(-c3ccccc3F)nc2-c2cc(C)sc2C)CC1,"inconclusive: 14.7 µM [inhibitor, partial curve]",
COC(=O)c1cc(C(=O)OC)cc(N2C(=O)CC(NNC(=O)c3ccccc3Br)C2=O)c1 (configuration not stated),"inconclusive: 16.5 µM [inhibitor, single point]",
O=[N+]([O-])c1ccc2ncnc(N3CCN(Cc4ccc5c(c4)OCO5)CC3)c2c1,"inconclusive: 8.28 µM [inhibitor, partial curve]",
O=C1N=C(N2CCCCC2)S/C1=C\c1ccc(Br)cc1,,inactive: 64.9%
Cc1cccc(N2CCc3c2nc2ccccc2c3N)c1,"inconclusive: 13.1 µM [inhibitor, single point] and inconclusive: 1.85 µM [inhibitor, partial curve, poor fit]",
COc1ccc(S(=O)(=O)N2CCN(C(=O)c3cc4c(s3)CCCC4)CC2)cc1,"inconclusive: 10.4 µM [inhibitor, single point]",
O=C(NCc1ccccc1)C(c1ccncc1)N(C(=O)c1ccccn1)c1ccccc1 (configuration not stated),,inactive: 16.6%
CCN1CCN(C(=O)c2nn(C)c3c2CS(=O)(=O)c2ccccc2-3)CC1,,inactive: 8.08%
Cc1cc(C(=O)OCC(=O)N2CCN(C(=O)c3ccco3)CC2)c(C)n1-c1ccc(F)cc1,active: 11.7 µM,
NC(=O)c1c(NC(=O)CSc2nnc(Cc3ccccc3)n2Cc2ccco2)sc2c1CCC2,"inconclusive: 7.38 µM [inhibitor, partial curve, poor fit]",
Cc1onc(-c2ccccc2)c1C(=O)NC(=S)NNC(=O)c1ccncc1,"inconclusive: 16.5 µM [inhibitor, single point]",
Cc1cnc(NCCc2ccccc2)s1,"inconclusive: 2.94 µM [inhibitor, full curve]",
Cc1ccc(CCNC(=O)C2CCN(S(=O)(=O)c3cccc4nsnc34)CC2)cc1,"inconclusive: 10.4 µM [inhibitor, partial curve, poor fit]",
Cc1ccc(NS(=O)(=O)c2cccc3nsnc23)cc1C,,inactive: -0.276%
COc1ccc(SC[C@H](Cc2ccccc2)N2CCN(C)CCC2=O)cc1,active: 13.1 µM,
Cc1ccc(NC2=NC(=S)N(CC#N)C23CCCCC3)cc1,"inconclusive: 10.4 µM [inhibitor, partial curve, poor fit]",
Cc1cccc(OP(=O)(Nc2cccnc2)Oc2cccc(C)c2)c1,"inconclusive: 10.4 µM [inhibitor, single point]",

SMILES,Potency,"activity change, negative = inhibition"
O=c1c2ccccc2ncn1Cc1cccc2ccccc12,"inconclusive: 10.4 µM [inhibitor, partial curve, poor fit]",
CC1CN(C(=S)NC(=O)c2ccc(Cl)cc2)CC(C)O1 (configuration not stated),"inconclusive: 10.4 µM [inhibitor, single point]",
Cc1cc(/C=C\c2ccc3cc(N(C)C)ccc3[n+]2C)c(C)n1-c1ccccc1,active: 642 nM and active: 262 nM,
CCN1CCN(CCC(=O)Nc2cc(OC)cc(OC)c2)CC1,"inconclusive: 0.522 µM [inhibitor, partial curve, poor fit]",
O=C(CSc1nc(O)cc(=O)n1-c1ccccc1)Nc1ccc2c3c(cccc13)CC2,"inconclusive: 8.28 µM [inhibitor, partial curve]",
Cc1ccc(-c2nn(Cc3ccccc3)cc2C=O)cc1,,inactive: 82.7%
COc1ccc(C(=O)NCC(c2cccnc2)N2CCN(c3ccccc3OC)CC2)cc1OC (configuration not stated),"inconclusive: 16.5 µM [inhibitor, single point]",
O=C(c1ccco1)N1CCN(CCCCOc2cccc3ccccc23)CC1,"inconclusive: 7.38 µM [inhibitor, partial curve, poor fit]",
C/C(CC(=O)Nc1ccc(Cl)c(C(F)(F)F)c1)=N\NC(=O)c1ccccc1O,"inconclusive: 11.7 µM [inhibitor, partial curve]",
C[N+](C)=C1SCC(C)(/C=N/O)S1 (configuration not stated),"inconclusive: 1.65 µM [inhibitor, partial curve, poor fit]",
CCn1c(=O)c(-c2ccccc2)c(O)c2ccccc21,,inactive: -0.382%
CCn1cc(C(=O)O)c(=O)c2cc(F)c(N3CCN(C(=S)NC(=O)c4c(OC)cccc4OC)CC3)cc21,"inconclusive: 13.1 µM [inhibitor, partial curve]",
O=C(NCc1ccco1)c1ccccc1SCC(=O)N1CCCC1,"inconclusive: 18.5 µM [inhibitor, single point]",
N=c1c2c(-c3ccccc3)c(-c3ccccc3)n(Cc3ccco3)c2ncn1Cc1ccco1,active: 3.7 µM,
COc1cc(C(=O)NCC(=O)NCCN2C(=O)S/C(=C\c3ccccc3Cl)C2=O)cc(OC)c1OC,"inconclusive: 10.4 µM [inhibitor, partial curve, poor fit]",
COc1ccc(OCC(=O)NNC(=O)C(=O)Nc2ccc(C)cc2)cc1,,inactive: 0%
O=C1OC(NCc2cccnc2)(c2ccc(Cl)cc2)c2ccccc21 (configuration not stated),"inconclusive: 11.7 µM [inhibitor, single point]",
CC(=O)N1C(=O)CC(C)N(C(C)=O)c2ccc([N+](=O)[O-])cc21 (configuration not stated),,inactive: 2.73%
CC(=O)N1CCc2cc(Br)cc(S(=O)(=O)NCCCN(C)Cc3ccccc3)c21,"inconclusive: 13.1 µM [inhibitor, partial curve]",
COc1ccc(C(C(=O)NC(C)(C)C)N(CCc2ccccc2)C(=O)CCC(=O)Nc2cc(C)on2)cc1 (configuration not stated),active: 11.7 µM,
CCOc1ccc2c(c1)sc(N)[n+]2Cc1cc(C)cc2cccnc12,active: 9.28 µM,
